Laboratory results: PubChem BioAssay AID493208 (National Center for Advancing Translational Sciences (NCATS), 2011)
Among all 44,000 compounds or so, about 340 (0.77%) were called active. Inconclusive results (about 5%) are left out. Calls come from the whole dose curve; as a rule, active = well fitted inhibition curve with a large enough effect; inconclusive = small, poorly fitted or top-dose-only effect; inactive = flat fitted curve, though single readings scatter. The list shows a part of the results.

Experiment: Acumen qHTS Assay for Inhibitors of the mTORC1 Signaling Pathway in MEF (Tsc2-/-, p53-/-) Cells: Sytravon; note: nearly all actives have a fitted effect of over 50% in size;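 for activity change, negative = inhibition: plate controls were DMSO for no effect and rapamycin for full effect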
Conditions: phospho-rpS6 immunofluorescence/PI, 24 h; series mostly up to 38.3 µM; activity change, negative = inhibition: at the top concentration
How it was run: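 Cell-based qHTS: Tsc2-/- p53-/- MEF, 24 h cpd, 37 °C; fix/perm, anti-phospho-S6 Alexa-488 + PI; Acumen 488 nm scan; pS6/PI ratio, % positive cells; rapamycin 7.5 nM = inhibition ref; PI count = viability.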
Potency is the fitted concentration of half-maximal effect.

SMILES	activity change, negative = inhibition	Potency
CCOC(=O)c1ccc(NS(=O)(=O)c2ccc3[nH]c4c(c3c2)CCCCC4)cc1	inactive: 1.43%	–
CCCCN(C)C(=O)Cn1c(SCC(=O)Nc2ccc(C)c(C)c2)nc2ccccc21	inactive: 5.3%	–
CCOC(=O)C1(C)C=C(Nc2ccc(C(=O)O)cc2)C(=O)N1c1ccc(C(=O)O)cc1 (stereo unspecified)	inactive: -1.96%	–
Cc1nc2ccccc2n1CCc1nc2c3ccccc3nc(SCc3ccc(F)cc3)n2n1	inactive: -4.31%	–
Cc1cccc(Nc2c3c(nc4nncn24)CCC3)c1C	inactive: 1.89%	–
COc1ccc2c(c1)c1c(c(=O)n(-c3ccccc3C)c(=O)n1Cc1c(F)cccc1Cl)n2C	inactive: 2.13%	–
CCOC(=O)c1c(C)oc2nc(C)nc(NCC3CCN(Cc4cccc(Cl)c4)CC3)c12	inactive: -9.02%	–
Cc1cccc(NC(=O)C2CCCN(c3nc4ccccc4s3)C2)c1C (stereo unspecified)	inactive: -3.04%	–
Cc1ccc(C)c(N2CCN(CCCNC(=O)Nc3ccc(Cl)cc3)CC2)c1	–	active: 18.5 µM
CCOC(=O)C1CCCN(C(=O)Cn2nc(CC)n3c(cc4occc43)c2=O)C1 (stereo unspecified)	inactive: -7.66%	–
CCOc1ccccc1NC(=O)CN1C=NS(=O)(=O)c2ccccc21	inactive: 0.166%	–
Cc1ccc(CCNC(=O)c2ccc(CS(=O)(=O)Cc3ccccc3F)o2)cc1	inactive: -1.69%	–
Cc1ccc(NC(=O)CCNS(=O)(=O)c2ccc3c(c2)CCCC(=O)N3)cc1	inactive: 4.76%	–
COc1cccc2cc(-c3nc(-c4ccc(C)cc4)c(C)s3)c(=O)oc12	inactive: -5.57%	–
Cc1ccc(C(=O)Nc2ccc3nc(N4CCCCC4)cc(C)c3c2)cc1F	inactive: -0.87%	–
CC(=O)c1ccc(N2C(=O)N(Cc3cc(C)ccc3C)c3ccccc3S2(=O)=O)cc1	inactive: 0.527%	–
O=S(=O)(Nc1ccc(Cl)cc1)c1cccc(S(=O)(=O)c2ccc(Cl)c(Cl)c2)c1	inactive: -2.68%	–
Cc1cc(Nc2ccc(F)cc2)nc(-n2nc(C)cc2C)n1	inactive: -0.475%	–
CCc1cccc(C)c1NC(=O)CCn1nc(C)c2c(C)n(-c3ccccc3)nc2c1=O	inactive: -1.52%	–
CC1=C(C(=O)Nc2cccc(C(F)(F)F)c2)C(c2ccccc2)n2ncnc2N1 (stereo unspecified)	inactive: 0.473%	–
COc1ccc(NC(=O)Cc2noc3ccc(C)cc23)cc1Cl	inactive: -26.2%	–
COc1ccc(NC(=O)Cn2c(=O)n(-c3ccc(C)c(C)c3)c(=O)c3c(C)c(C)sc32)cc1	inactive: 28.5%	–
COc1cccc(N2CC(NC(=O)C3CC3)CC2=O)c1 (stereo unspecified)	inactive: 3%	–
Cc1ccc(CCNC(=O)c2ccc(NC(=O)N3CCSc4ccccc43)cc2)cc1	inactive: 0.833%	–

SMILES	activity change, negative = inhibition	Potency
Cc1ccc(C)c(N2CCN(c3nc4c(S(=O)(=O)c5ccccc5)nnn4c4ccc(Cl)cc34)CC2)c1	inactive: -0.455%	–
CCOc1ccc2c(c1)c(=O)c(C(=O)c1ccc(CC)cc1)cn2CC(=O)Nc1ccccc1C	inactive: -5.71%	–
COc1ccc(N2CCN(c3cc(C)nc4nncn34)CC2)cc1	inactive: -1.3%	–
CCCN(C(=O)c1cc2c(=O)oc3ccccc3c2s1)c1ccccc1C	inactive: -1.46%	–
CCC(C)NC(=O)Cn1c(=O)ccc2cc(S(=O)(=O)N3CCCC3)ccc21 (stereo unspecified)	inactive: -11.7%	–
CCOC(=O)c1c(S(=O)(=O)N2CCC(C(=O)Nc3cccc(C)n3)CC2)c(C)n(C)c1C	inactive: 0.395%	–
COCC(=O)N1c2nc(-c3ccco3)nn2C2(CCCCC2)[C@@H]2CCCC[C@@H]21	inactive: -1.83%	–
CCc1ccc2c(c1)c(=O)c(S(=O)(=O)c1ccccc1)cn2CC(=O)Nc1ccc(OC)cc1	inactive: -8.83%	–
CCOc1cc(CNC(=O)c2ccc3nc(CCc4ccccc4)oc3c2)ccc1OC	inactive: -7.1%	–
O=C(CSc1nc2ccsc2c(=O)n1Cc1ccccc1Cl)NCc1ccc(Cl)cc1	inactive: -3.51%	–
O=C(CSc1nc2ccccc2n1Cc1c(F)cccc1Cl)N1CCN(c2ccc(F)cc2)CC1	inactive: -4.4%	–
COc1ccc(NC(=O)CN2C(=O)C3(SCC(=O)N3c3cccc(OC)c3)c3ccccc32)cc1 (stereo unspecified)	inactive: 3.01%	–
Cc1ccc(S(=O)(=O)NCCc2csc3nc(-c4ccccc4C)nn23)cc1	inactive: 2.01%	–
Cc1ccc(CNC(=O)C(C)n2ccc3cc(S(=O)(=O)N4CCCC4)ccc32)cc1 (stereo unspecified)	inactive: -6.33%	–
O=C(c1ccc2c(Cl)c3c(nc2c1)CCCC3)N1CCN(c2ccccc2F)CC1	inactive: 0.296%	–
O=C(Nc1nnc(SCc2cc(=O)n3cc(Cl)ccc3n2)s1)c1cccc(F)c1	inactive: -3.09%	–
COc1cccc(C2=CC(c3ccccc3F)n3c(nc4ccccc43)N2)c1 (stereo unspecified)	inactive: 0.118%	–
COc1ccc(N2CC(NC(=O)c3c(F)cccc3Cl)CC2=O)cc1OC (stereo unspecified)	inactive: 0.627%	–
CCC(C(=O)N1CCN(c2ccccc2)CC1)n1nc(C)c2sc3ccccc3c2c1=O (stereo unspecified)	inactive: -6.66%	–
Cc1ccccc1NC(=O)c1cnc2sc(N3CCCC3)nn2c1=O	inactive: -0.741%	–
CCOc1ccc(N2CC(c3nc4ccccc4n3CCOc3ccc(CC)cc3)CC2=O)cc1 (stereo unspecified)	inactive: 5.53%	–
COc1ccc(Cn2c(=O)[nH]c3cc(C(=O)N4CCN(c5cc(Cl)ccc5C)CC4)ccc3c2=O)cc1	inactive: -2.87%	–
COc1ccccc1-c1noc(-c2ccc(NC(C)C)c([N+](=O)[O-])c2)n1	inactive: 2.71%	–
COc1ccc(-c2nn(-c3cccc(F)c3)c3c2cnc2cc(OC)c(OC)cc23)cc1	inactive: 0%	–

SMILES	activity change, negative = inhibition	Potency
O=C(CCCCn1c(=O)c2ccccc2n(CC(=O)Nc2cccc(F)c2)c1=O)NCCc1ccccc1	inactive: -28.3%	–
COc1ccc2[nH]cc(S(=O)(=O)c3ccc(C)c(C)c3)c(=O)c2c1	inactive: 1.26%	–
CCc1ccc(NC(=O)Cn2cc(S(=O)(=O)N3CCCC3)c(S(=O)(=O)N3CCCC3)c2)cc1	inactive: -9.58%	–
CC(C)NC(=O)CCN1C(=O)c2ccccc2Sc2ncccc21	inactive: 0.126%	–
O=C(NC1CC(=O)N(c2ccc(F)cc2)C1)C1CC1 (stereo unspecified)	inactive: 1.02%	–
Cc1ccc(NC(=O)Cn2nnc(C(=O)NCc3ccc4c(c3)OCO4)c2N)cc1Cl	inactive: 2.69%	–
Cc1cc(C)cc(NC(=O)CCCc2nc(-c3ccccc3Cl)no2)c1	inactive: -7.81%	–
Cn1c(=O)n(CCCc2ccccc2)c(=O)c2c1nc1n2CCN1c1ccc(F)cc1	inactive: 9.17%	–
CCOC(=O)c1cc2c(=O)n3ccccc3nc2n(Cc2ccco2)c1=NC(=O)c1ccc(OCC)cc1	inactive: 0.91%	–
O=C(c1cc(-c2ccc(O)cc2)on1)N1CCN(c2ccccc2)CC1	inactive: -0.0981%	–
CCCCOC(=O)c1ccc(NC(=O)c2cnc3ccc(C)cn3c2=O)cc1	inactive: 0.62%	–
CCn1c(=O)cc(OCC(=O)N2CCN(c3ccc(F)cc3)CC2)c2ccccc21	inactive: -12.5%	–
CCN(c1cccc(C)c1)c1ncnc2c1cnn2-c1cccc(Cl)c1	inactive: 2.74%	–
COc1ccc(CN2COc3ccc4c(-c5ccccc5)cc(=O)oc4c3C2)cc1OC	inactive: -0.676%	–
COc1cc(OC)c(N(C)C(=O)c2sc3nc4n(c(=O)c3c2C)CCCC4)cc1Cl	inactive: 5.53%	–
Cc1nn(C(=O)c2ccc(Br)cc2)c(C)c1Sc1ccccc1	inactive: 6.62%	–
Cc1ccc(NC(=O)Cn2c(=O)n(Cc3nc(-c4ccccc4)no3)c(=O)c3cc4c(cc32)OCO4)c(C)c1	inactive: 0.0656%	–
COc1ccc(Cl)cc1NC(=O)CSC1=Nc2ccccc2C2=NC(CC(=O)NCc3cccs3)C(=O)N12 (stereo unspecified)	inactive: -18.4%	–
COc1ccc(CCNC(=O)CSc2n[nH]c(-c3ccccc3Cl)n2)cc1OC	inactive: -22%	–
O=C(NCc1ccccc1)c1cnc(N2CCCCC2)c2ccccc12	inactive: -0.0889%	–
COc1cccc(Nc2nc3ccc(C)cc3nc2-n2nc(C)cc2C)c1	inactive: -1.91%	–
COc1ccc(Nc2c(-c3ccccn3)nc3ccc(Cl)cn23)cc1	inactive: -0.126%	–
CCc1ccc(-n2c(=O)c3cccnc3n2CC(=O)NCc2ccc(C)cc2)cc1	inactive: -3.63%	–
Cc1ccc(NC(=O)C2=CC(c3ccc4c(c3)OCO4)=NS(=O)(=O)N2C)cc1	inactive: -1.82%	–

SMILES	activity change, negative = inhibition	Potency
Cc1ccc(NC(=O)CSc2nc(-c3ccccc3Cl)nc3cc(=O)[nH]n23)c(C)c1	inactive: 0.0761%	–
Cc1ccc(C(c2sc3nc(-c4ccco4)nn3c2O)N2CCC3(CC2)OCCO3)cc1 (stereo unspecified)	inactive: -0.307%	–
CCc1cccc(Nc2ncnc3onc(-c4ccc(F)cc4)c23)c1	inactive: -1.12%	–
COC(=O)c1c(C)nn(-c2ccc(F)cc2)c1-n1cccc1	inactive: 0.0904%	–
COc1ccc(OC)c(C2NC(=O)NC(C)=C2C(=O)Nc2ccc(F)cc2)c1 (stereo unspecified)	inactive: -4.22%	–
COc1cccc(N2CCN(S(=O)(=O)c3ccc(-c4ccno4)cc3OC)CC2)c1	inactive: -0.475%	–
O=C(CSc1cn(CC(=O)N2CCCCC2)c2ccccc12)Nc1ccc(C(F)(F)F)cc1	inactive: -10.5%	–
COc1ccc(NC(=O)c2ccco2)cc1NC(=O)COc1ccc(Cl)cc1C	inactive: 3.21%	–
Cc1ccc(C(=O)NCc2ccc(F)cc2)cc1NC(=O)c1nsc2ccccc12	inactive: -2.34%	–
CCN(CC)CCNC(=O)c1sc2ncccc2c1-n1cccc1	inactive: -5.68%	–
Cc1cc(C)cc(-n2c(SCC(=O)Nc3ccc4c(c3)OCCO4)nc3c([nH]c4ccccc43)c2=O)c1	inactive: 1.65%	–
Cn1cc(S(=O)(=O)c2ccccc2)c(=O)c2cc(F)c(N3CCCCCC3)cc21	inactive: -4.01%	–
Cn1c(=O)n(C)c2cc(N3CCCCC3)c(NC(=O)c3ccc(C(C)(C)C)cc3)cc21	inactive: 4.49%	–
COc1ccc(CNC(=O)CCc2nc(-c3ccc(C)cc3)no2)c(OC)c1	inactive: -5.42%	–
O=C(Nc1ccc2nc(SCC(=O)N3CCc4ccccc43)sc2c1)c1ccccc1F	inactive: 0.547%	–
CC1=C(c2ccc(C)c(C)c2)S(=O)(=O)N=C1N1CCC(C(=O)NC(C)Cc2ccco2)CC1 (stereo unspecified)	inactive: 2.33%	–
COc1cc(C(=O)Nc2nonc2-c2ccc(C)c(C)c2)cc(OC)c1OC	inactive: 4.11%	–
COc1ccc(C)cc1-n1cnc2cc(C(=O)NC3CCCC3)ccc21	inactive: -1.2%	–
Cc1ccc(NC(=O)c2ccc(NC(=O)N3CCSc4ncccc43)cc2)c(C)c1	inactive: -1.81%	–
CC1Cc2cc(S(=O)(=O)N(Cc3ccccc3)C(C)C)ccc2N1C(=O)C1CCC1 (stereo unspecified)	inactive: -0.695%	–
Cc1ccccc1Nc1c(-c2cccs2)nc2cccc(C)n12	inactive: 15.9%	–
Cc1cc(C(=O)Nc2c(C)nc3ccccn3c2=O)ccc1[N+](=O)[O-]	inactive: -12.6%	–
CCOc1ccc(/C=C/c2nc(C#N)c(NCCc3ccccc3)o2)cc1	inactive: -16.4%	–
O=C(CSc1nc2c([nH]c3ccccc32)c(=O)n1-c1ccc(Cl)cc1)NCC1CCCO1 (stereo unspecified)	inactive: -0.0552%	–
